What was measured:
[1] = target: CD28 (Cluster of Differentiation 28) (human) (UniProt P10747); test: flow cytometry, binding to H929 cells (carry CD28 and BCMA; binding largely dependent upon CD28 arm)
[2] = target: CD28 (Cluster of Differentiation 28) (human) (UniProt P10747); test: cell-based or functional assay
[3] = target: CD28 (Cluster of Differentiation 28) (human) (UniProt P10747); test: flow cytometry, binding to human pan T cells (dependent on the CD28 arm)

B1: VB28B3 (protein, from a related filing, not shown: a dimerising Fc or GST)
VH 1: QVQLQQWGAGLLKPSETLSLICAVYGGSFSGYYWSWIRQPPGKGLEWIGDINHSGNTNFNPSLKSRVTISVDTSKNQFSLKLSSVTAADTAVYYCAKGEAWFDPWGQGIMVTVSS
VL 1: EIVMTQSPATLSVSPGERATLSCRASQSVRSNLDWYQQKPGQAPRLLIYGASTRATGIPARFSGSGSGTEFTLTISSLQSEDFAVYYCQQYNNWPLTFGGGTKVEIK
VH 2: QVQLQESGPGLVKPSETLSLTCTVSGYSITSGYFWNWIRQPPGKGLEWIGYISYDGSNNYNPSLKSRVTISRDTSKNQFSLKLSSVTAADTAVYYCASPSPGTGYAVDYWGQGTLVTVSS
VL 2: DIQMTQSPSSLSASVGDRVTITCRSSQSLVHSNGNTYLHWYQQKPGKAPKFLIYKVSNRFSGVPSRFSGSGSGTDFTLTISSLQPEDFATYYCSQSTHVPFTFGQGTKLEIK
VH 3: [about 100 residues not given here]DEGYSSGHYYGMDVWGQGTTVTVSS
VL 3: EIVLTQSPGTLSLSPGERATLSCRASQSISSSFLTWYQQKPGQAPRLLIYGASSRATGIPDRFSGGGSGTDFTLTISRLEPEDFAVYYCQHYGSSPMYTFGQGTKLEIK
[1]
  EC50: 0.08 µg/mL
[2]
  activation of Vβ17 T cells in co-culture with H929 cells (CD25, CD71, proliferation), 96 hours: 100 fold
[3]
  EC50: 0.03 µg/mL
